According to the supplement of paper PMC11876631:
Residue numbers refer to the chain shown, from its start. Names may count otherwise. ± gives the standard deviation of the averaged measurements. Laboratory Escherichia coli strains with one amino-acid change in an essential protein, pooled on minimal glucose agar with carbenicillin or gentamicin at twice the control MIC (plus kanamycin and chloramphenicol for the plasmids), 48 h. Fold change of barcode share against drug-free plates; higher = less susceptible. Active = above 20 in both replicates (the paper's putatively resistant). '<' = one read or none on drug, '>' = one read or none on a drug-free plate. Shares are relative, so most strains fall below 1 when a few take over. Listed are strains with at least 15 reads on both drug-free plates, and hits; most hits rest on fewer reference reads. Replicate rank correlation about 0.5. Edits are read from barcodes.

Target: Escherichia coli (laboratory strain)
Experiment: barcode share on antibiotic plates over drug-free plates; higher = less susceptible
Description: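 A pool of E. coli strains, each edited to carry one amino-acid change in an essential protein, was grown for 48 h on minimal glucose agar with or without antibiotic; strain barcodes were sequenced; mean of two replicates.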

[1] = antibiotic: carbenicillin, 2× MIC (3.1 µg/mL)
[2] = antibiotic: gentamicin, 2× MIC (MIC 0.45 µg/mL)

B1: ribE I19Q (protein)
chain: MNIIEANVATPDARVAITQARFNNFINDSLLEGAIDALKRIGQVKDENITVVWVPGAYELPLAAGALAKTGKYDAVIALGTVIRGGTAHFEYVAGGASNGLAHVAQDSEIPVAFGVLTTESIEQAIERAGTKAGNKGAEAALTALEMINVLKAIKA
For B1, the “fold change of barcode share” value [1] was 0.411 ± 0.22 and the “fold change of barcode share” value [2] was 0.0126 ± 0.0095.

B2: ribE V76P (protein)
chain: B1 chain with Q19I, V76P
B2 was tested, and the “fold change of barcode share” value [1] was 0.296 ± 0.057 and the “fold change of barcode share” value [2] was under 0.0165.

B3: ribE V76Q (protein)
chain: B1 chain with Q19I, V76Q
In the case of B3, the “fold change of barcode share” value [1] is reported as 0.478 ± 0.22.

B4: ribE V76A (protein)
chain: B1 chain with Q19I, V76A
B4 was tested, and the “fold change of barcode share” value [1] was 0.415 ± 0.37 and the “fold change of barcode share” value [2] was under 0.0145.

B5: ribE L145A (protein)
chain: B1 chain with Q19I, L145A
For B5, the “fold change of barcode share” value [1] was 0.298 ± 0.028.

B6: ribE V76W (protein)
chain: B1 chain with Q19I, V76W
For B6, the “fold change of barcode share” value [1] was 0.338 ± 0.063 and the “fold change of barcode share” value [2] was under 0.00738.

B7: ribE L145Q (protein)
chain: B1 chain with Q19I, L145Q
In the case of B7, the “fold change of barcode share” value [1] is reported as 0.331 ± 0.066 and the “fold change of barcode share” value [2] is reported as 0.13 ± 0.078.

B8: ribE L60A (protein)
chain: B1 chain with Q19I, L60A
In the case of B8, the “fold change of barcode share” value [1] is reported as 0.297 ± 0.037 and the “fold change of barcode share” value [2] is reported as 0.126 ± 0.18.

B9: ribE L60Q (protein)
chain: B1 chain with Q19I, L60Q
In the case of B9, the “fold change of barcode share” value [1] is reported as 0.353 ± 0.06 and the “fold change of barcode share” value [2] is reported as 0.8495 ± 0.0031.

B10: ribF M51A (protein)
chain: MKLIRGIHNLSQAPQEGCVLTIGNFDGVHRGHRALLQGLQEEGRKRNLPVAVMLFEPQPLELFATDKAPARLTRLREKLRYLAECGVDYVLCVRFDRRFAALTAQNFISDLLVKHLRVKFLAVGDDFRFGAGREGDFLLLQKAGMEYGFDITSTQTFCEGGVRISSTAVRQALADDNLALAESLLGHPFAISGRVVHGDELGRTIGFPTANVPLRRQVSPVKGVYAVEVLGLGEKPLPGVANIGTRPTVAGIRQQLEVHLLDVAMDLYGRHIQVVLRKKIRNEQRFASLDELKAQIARDELTAREFFGLTKPA
With B10 the “fold change of barcode share” value [1] was 0.313 ± 0.091 and the “fold change of barcode share” value [2] was 0.00466 ± 0.0031.

B11: ribF M51D (protein)
chain: B10 chain with A51D
With B11 the “fold change of barcode share” value [1] was 0.856 ± 0.02 and the “fold change of barcode share” value [2] was 110 ± 140.

B12: ribF V52A (protein)
chain: B10 chain with A51M, V52A
In the case of B12, the “fold change of barcode share” value [1] is reported as 0.25 ± 0.12 and the “fold change of barcode share” value [2] is reported as 0.0253 ± 0.02.

B13: ribF V52P (protein)
chain: B10 chain with A51M, V52P
For B13, the “fold change of barcode share” value [1] was 1.14 ± 0.056 and the “fold change of barcode share” value [2] was 200 [active].

B14: ribF V52W (protein)
chain: B10 chain with A51M, V52W
For B14, the “fold change of barcode share” value [1] was 0.484 ± 0.15 and the “fold change of barcode share” value [2] was 229 [active].

B15: ribF V52Q (protein)
chain: B10 chain with A51M, V52Q
With B15 the “fold change of barcode share” value [1] was 0.347 ± 0.099 and the “fold change of barcode share” value [2] was 0.0779 ± 0.047.

B16: ribF V52D (protein)
chain: B10 chain with A51M, V52D
B16 was tested, and the “fold change of barcode share” value [1] was 0.358 ± 0.024 and the “fold change of barcode share” value [2] was 0.105 ± 0.11.

B17: ribF M51Q (protein)
chain: B10 chain with A51Q
In the case of B17, the “fold change of barcode share” value [1] is reported as 0.283 ± 0.064 and the “fold change of barcode share” value [2] is reported as 0.0052 ± 0.0042.

B18: ribF M51W (protein)
chain: B10 chain with A51W
For B18, the “fold change of barcode share” value [1] was 0.279 ± 0.12 and the “fold change of barcode share” value [2] was 0.121 ± 0.17.
